The values below come from PubChem BioAssay AID1224903 (Bradner/Qi Labs at DFCI, 2016).

The list shows a part of the results. The main result of the screen is listed elsewhere. These columns were measured beside it and carry no call. Compounds called inactive in the main read-out are mostly missing here.

In this experiment the target is Chromobox protein homolog 7 (Homo sapiens) (UniProt O95931). Put plainly: blockers of CBX7 binding to H3K27me3 peptide – biochemical, AlphaScreen, primary screen (AID 1224903). The conditions noted are these: AlphaScreen His6-CBX7 / biotin-H3K27me3 peptide binding; measured here: z-score of CBX7 signal; stronger effect = lower value. Background: Alpha assays give light when donor and acceptor beads are brought close together.
Sequence of UniProt O95931 (O95931 whole entry, looked up): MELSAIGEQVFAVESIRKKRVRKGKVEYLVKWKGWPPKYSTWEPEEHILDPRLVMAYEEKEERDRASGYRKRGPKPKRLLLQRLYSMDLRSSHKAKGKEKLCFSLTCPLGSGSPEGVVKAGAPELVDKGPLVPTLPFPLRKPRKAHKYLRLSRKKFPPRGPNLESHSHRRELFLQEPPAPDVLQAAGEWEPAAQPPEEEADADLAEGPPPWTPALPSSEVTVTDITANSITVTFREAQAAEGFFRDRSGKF
For the molecule `CCC(=C(c1ccc(OC)cc1)c1ccc(OC)cc1)c1cn(CCN(C)C)c2ccccc12`, the z-score is -4.24.

As for `C=CCN(CC=C)S(=O)(=O)c1ccc(C(=O)Nc2nnc(COC)o2)cc1`, the z-score is -1.62.

With `Cc1cc(C)n(-c2nc3ccccc3nc2Nc2ccc(N3CCCCC3)cc2)n1`, the z-score was -20.7.

Molecule `COc1ccc(NC2c3ccccc3C(=O)N2c2ccc(Cl)cc2)cc1` (centres undefined) yielded a z-score of -15.7.

On to `CCCCn1cnc2cc(NCc3cccc(OC)c3)ccc21`, for which the z-score is -18.5.

As for `Cc1ccc(Nc2c(-c3ccccn3)nc3cccc(C)n23)cc1`, the z-score is -21.6.

Consider `COCCN(CCOC)S(=O)(=O)c1ccc(C(=O)Nc2nnc(C)o2)cc1`, for which the z-score was -1.32.

`Brc1cccc(-c2nc3ccccn3c2Nc2ccc3c(c2)OCCO3)c1`: the z-score is -4.51.

`CC1CCCCN1S(=O)(=O)c1ccc(C(=O)Nc2nc(-c3ccccn3)cs2)cc1` (centres undefined) showed a z-score of -26.2.

`O=C(CC(Sc1cccc2cccnc12)c1ccc(F)cc1)c1cccs1` (centres undefined) displayed a z-score of -3.92.

The molecule `Cc1cccc(NC(=O)CSc2nccn2-c2ccc(Cl)cc2)c1C` returned a z-score of -1.97.

The molecule `CCN1CCCc2cc(CN(C(=O)Nc3ccc(C)c(C)c3)C3CCCC3)ccc21` displayed a z-score of -8.78.

Molecule `Cc1cccc(-n2c(-c3ccccc3F)nc3c(cnn3-c3ccccc3)c2=O)c1` gave a z-score of -20.4.

Molecule `O=C(Nc1ccc2oc(-c3ccccc3Cl)nc2c1)c1ncn[nH]1` returned a z-score of -27.2.

In turn, `Cc1cccc2nc(-c3ccccn3)c(Nc3ccc(F)cc3)n12` registered a z-score of -25.1.

As for `CCc1ccc(NC(=O)N(Cc2ccc3c(c2)CCCN3CC)C2CCCC2)cc1`, the z-score was -10.3.

Regarding `CCc1nnc(NC(=O)c2ccc(S(=O)(=O)N3CCCCCC3)cc2)o1`, the z-score is -10.6.

Take `O=C(Nc1ncn[nH]1)c1ccccc1O`: the z-score was -37.5.

`CN(c1ccccc1)S(=O)(=O)c1ccc(C(=O)Nc2nnc(-c3ccc(Cl)s3)o2)cc1` registered a z-score of -6.88.

`CCOC(=O)c1cnc2ccc(OCC)cc2c1N1CCN(c2ccccc2OC)CC1`: the z-score is -0.605.

In turn, `COc1cc(Nc2nc(-c3ccc(C4CCCCC4)cc3)cs2)c(OC)cc1Cl` gave a z-score of -5.97.

As for `COc1ccccc1CNc1nc(-c2ccccc2F)nc2ccccc12`, the z-score is -0.894.

Regarding `CCc1ccc2oc(-c3cccc(NC(=O)c4ncn[nH]4)c3)nc2c1`, the z-score was -16.9.

`CCOC(=O)c1cnc2c(C(F)(F)F)cccc2c1Nc1ccc(N(C)C)cc1` came in with a z-score of -38.1.

The molecule `Cc1ccc(Nc2nc(-c3sc(N)nc3C)cs2)cc1` had a z-score of -12.2.

Molecule `CCc1nnc(NC(=O)c2ccc(S(=O)(=O)N(CC)c3ccccc3)cc2)o1` returned a z-score of -1.61.

`COc1cccc(-c2nc(-c3ccccc3)c(-c3cccs3)[nH]2)c1OC`: the z-score is -0.569.

`CCOC(=O)c1ccc(Nc2nnc(C(C)(C)C)c(=O)[nH]2)cc1` gave a z-score of -8.71.

`CCCCN(CCCC)S(=O)(=O)c1ccc(C(=O)Nc2nnc(CC)o2)cc1` showed a z-score of -10.5.

In turn, `CCc1nc(C)ccc1OCC(=O)NCCCN(C)C` returned a z-score of -11.2.

Molecule `CCN(CCCNC(=O)CCc1nc(-c2ccc(OC)cc2)no1)c1cccc(C)c1` had a z-score of -12.5.

Molecule `Cc1nc(C)c(-c2csc(Nc3ccc(N(C)C)cc3)n2)s1` returned a z-score of -18.8.

As to `COc1ccccc1Nc1nc(-c2ccncc2)nc2ccccc12`, the z-score is -0.668.

As for `CCOc1ccccc1NC(=O)CSc1nccn1-c1cccc(OC)c1`, the z-score was -0.688.

As for `O=C1CC(NCCc2ccccn2)C(=O)N1c1ccc(Cl)cc1` (centres undefined), the z-score is -12.8.

On to `COc1ccc(Br)cc1CNC(=O)CCCc1cn(C)c2ccccc12`, for which the z-score is -10.1.

Turning to `O=c1c(-c2cc(Br)ccc2NCc2ccccc2)nc2ccccc2n1Cc1ccccc1`, the z-score is -9.12.

As for `COc1ccc(Nc2ncc(C(=O)Nc3cccc(Cl)c3)c3ccccc23)cc1`, the z-score is -13.5.

Molecule `COc1ccc(-c2nc(-c3ccccc3F)[nH]c2-c2ccc(OC)cc2)cc1` came in with a z-score of -0.531.

For the molecule `COc1ccc(NC(=O)[C@H](Cc2ccccc2)N2Cc3ccccc3C2=O)cc1OC`, the z-score is -1.63.

The molecule `O=C(c1ccc2nc(-c3ccco3)c(-c3ccco3)nc2c1)N1CCc2ccccc2C1` yielded a z-score of -2.76.

In turn, `Cc1cccc2nc(-c3ccccn3)c(Nc3ccccc3)n12` yielded a z-score of -21.5.

In the case of `Oc1ccc(-c2nc(-c3ccccc3)c(-c3ccccc3)[nH]2)cc1`, the z-score is -0.573.

The molecule `NC(=O)c1ccc(-c2ncc(-c3ccccc3)o2)cc1` returned a z-score of -0.647.

Consider `COC(=O)c1c[nH]n2c(NC3CCC(C)CC3)c(-c3ccc(F)cc3)nc12` (centres undefined), for which the z-score is -0.842.

`Cc1ccc(C)c(-c2csc(Nc3ccc(C)c(Cl)c3)n2)c1` showed a z-score of -10.8.

In turn, `N#Cc1nc(COc2ccccc2)oc1N1CCCCCC1` yielded a z-score of -3.4.

With `CCc1nnc(NC(=O)c2ccc(S(=O)(=O)N3CCCCC3)cc2)o1`, the z-score is -9.94.

In turn, `COc1ccc(-c2nc(-c3cccs3)c(-c3cccs3)[nH]2)cc1OC` came in with a z-score of -0.551.

The molecule `Cc1ccc2[nH]c3c(c2c1)CCCC3NCc1ccc(F)cc1` (centres undefined) showed a z-score of -3.59.

For the molecule `CN(C)c1ccc(C2NC(C(=O)O)Cc3c2[nH]c2ccccc32)cc1` (centres undefined), the z-score is -8.2.

In the case of `Cc1nc(N)sc1-c1csc(Nc2ccc(Cl)cc2)n1`, the z-score was -12.2.

For the molecule `COc1ccc(OC)c(NC2c3ccccc3C(=O)N2c2ccc(Cl)cn2)c1` (centres undefined), the z-score is -17.7.

`OC1CCCc2c1[nH]c1ccc(OCc3ccccc3)cc21` (centres undefined) registered a z-score of -1.61.

With `COc1ccc(NC(=O)c2c(NCc3cccnc3)sc3c2CCC(C)C3)c(OC)c1` (centres undefined), the z-score is -7.54.

Molecule `CCOc1ccc(-n2c(-c3ccc(OC)cc3)cc3c2CC(C)(C)CC3=O)cc1` displayed a z-score of -11.3.

As for `Cc1c(-c2ccccc2)nc2sc3c(c2c1N)CCCC3`, the z-score is -5.56.

As for `COc1ccc(CCNc2nc(-c3sc(N)nc3C)cs2)cc1OC`, the z-score is -12.9.

`CN(Cc1ccccc1)c1oc(COc2ccc(Cl)cc2)nc1C#N` showed a z-score of -3.22.

Consider `Oc1c(Br)cc(CN2CCCCC2)c2cccnc12`, for which the z-score was -13.2.

With `Nc1ccc(-c2ccc(-c3cnc4ccccc4n3)cc2)cc1`, the z-score was -9.63.

In turn, `COc1ccc(Nc2cc(C(=O)NCCCN(C)Cc3ccccc3)c3ccccc3n2)cc1OC` returned a z-score of -11.1.

Consider `CC(C)c1ccc(CNc2ccc3c(c2)ncn3C(C)(C)C)cc1`, for which the z-score was -20.4.

In the case of `O=C(CS(=O)(=O)c1nc(-c2ccccc2)cn1-c1ccc(Cl)cc1)Nc1ccccc1F`, the z-score is -5.22.

`CCOC(=O)c1cnc2c(OC)cccc2c1N1CCN(c2ccccc2F)CC1`: the z-score was -0.646.

Take `COCc1cc(=O)[nH]c(Nc2nc3ccccc3o2)n1`: the z-score was -11.4.

With `Cc1nn(CC(O)Cn2c(C)c(C)c3ccccc32)c(C)c1Br` (centres undefined), the z-score is -3.71.

Molecule `COC(=O)c1c[nH]n2c(NC3CCC(C)CC3)c(-c3ccc(OC(C)C)c(OC)c3)nc12` (centres undefined) displayed a z-score of -0.988.

Take `COC(=O)CNc1c(-c2ccccn2)nc2ccc(Br)cn12`: the z-score is -1.63.
